Experimental data: PubChem BioAssay AID504332 (National Center for Advancing Translational Sciences (NCATS), 2011)
The whole screen tested about 350,000 compounds, of which about 31,000 (8.9%) were called active. This list was built around the results that the source calls inconclusive (neither active nor inactive); the mix of calls is not that of the screen. Calls come from the whole dose curve; as a rule, active = well fitted inhibition curve with a large enough effect; inconclusive = small, poorly fitted or top-dose-only effect; inactive = no such curve, though single readings can be large or run the other way. Potencies of inconclusive entries are doubtful fits and often do not repeat. Where a SMILES comes first, the peptide text is derived from it. [ ]: non-standard residue; d: D form. The star is where a group is joined. ξ: configuration not given here. ξY = NC(Cc1ccc(O)cc1)C(=O)O; Cbz = O=C(OCc1ccccc1)*; OtBu = CC(C)(C)O*; tBu = CC(C)(C)*

molecular target: Histone-lysine N-methyltransferase EHMT2 (Homo sapiens) (UniProt Q96KQ7); assay: qHTS Assay for Inhibitors of Histone Lysine Methyltransferase G9a; details: G9a H3K9 monomethylation, AlphaScreen, 2 h; activity, negative = inhibition: at 59 µM (top of the series) unless noted; note: nearly all actives have a fitted effect of over 75% in size
In short: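 Using a bead-based AlphaScreen, monomethylated H3K9 product from 2 h room-temperature reactions (G9a 20 nM, peptide 500 nM, SAM 20 uM) was detected with 0.5 ug/mL rabbit anti-H3K9me1 antibody.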
% is set by controls: 0 for no effect and ±100 for the full control effect; potency is the fitted concentration of half-maximal effect; tags give direction and shape of the fitted curve.

Chain of UniProt Q96KQ7 (Q96KQ7 whole entry, looked up): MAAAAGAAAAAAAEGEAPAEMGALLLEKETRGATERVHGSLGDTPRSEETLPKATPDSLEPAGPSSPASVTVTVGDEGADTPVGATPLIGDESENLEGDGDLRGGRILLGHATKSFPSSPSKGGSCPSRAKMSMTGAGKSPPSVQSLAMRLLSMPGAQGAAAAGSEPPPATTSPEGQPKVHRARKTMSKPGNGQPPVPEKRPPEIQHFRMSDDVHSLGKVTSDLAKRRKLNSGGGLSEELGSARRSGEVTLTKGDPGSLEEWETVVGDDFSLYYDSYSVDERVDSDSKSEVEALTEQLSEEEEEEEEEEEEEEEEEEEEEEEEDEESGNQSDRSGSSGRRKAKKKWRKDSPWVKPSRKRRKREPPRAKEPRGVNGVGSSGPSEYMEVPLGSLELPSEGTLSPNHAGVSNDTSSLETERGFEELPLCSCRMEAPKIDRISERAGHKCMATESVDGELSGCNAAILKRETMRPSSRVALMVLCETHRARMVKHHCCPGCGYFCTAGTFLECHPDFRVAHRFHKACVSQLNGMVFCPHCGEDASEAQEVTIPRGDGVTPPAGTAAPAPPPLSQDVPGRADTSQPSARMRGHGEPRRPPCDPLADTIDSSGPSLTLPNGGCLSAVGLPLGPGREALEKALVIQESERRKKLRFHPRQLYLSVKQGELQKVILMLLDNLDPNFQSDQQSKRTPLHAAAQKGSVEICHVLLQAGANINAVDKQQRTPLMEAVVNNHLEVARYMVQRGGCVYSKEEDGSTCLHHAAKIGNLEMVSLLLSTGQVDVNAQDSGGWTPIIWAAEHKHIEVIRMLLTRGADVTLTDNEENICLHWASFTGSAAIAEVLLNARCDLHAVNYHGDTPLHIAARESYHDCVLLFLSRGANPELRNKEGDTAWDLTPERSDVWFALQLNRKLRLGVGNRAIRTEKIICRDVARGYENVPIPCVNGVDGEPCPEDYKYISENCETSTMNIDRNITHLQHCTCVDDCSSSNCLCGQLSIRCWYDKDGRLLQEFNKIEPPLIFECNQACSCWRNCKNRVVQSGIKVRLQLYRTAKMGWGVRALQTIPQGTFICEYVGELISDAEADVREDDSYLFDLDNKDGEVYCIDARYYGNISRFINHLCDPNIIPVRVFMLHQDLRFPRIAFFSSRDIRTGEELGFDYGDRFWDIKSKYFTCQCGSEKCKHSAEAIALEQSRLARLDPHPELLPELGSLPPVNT

SMILES | Potency | activity, negative = inhibition
CC1Nc2ccc(C(=O)NC3CCCCC3)cc2NC1=O (centres undefined) | active: 35.5 µM | –
CC1CC(C)(C)NC(=S)N1CCCC(=O)Nc1ccc(F)c(F)c1 (centres undefined) | – | inactive: -32.6% [at 102 µM]
O=C(c1ccccc1)N1CCC(c2nc3ccccc3o2)CC1 | – | inactive: 11.6%
NS(=O)(=O)c1cccc(NC(=O)CCC(=O)c2cccs2)c1 | – | inactive: 22% [at 2.33 µM]
CCCCCN(C(=O)CCC(=O)OC(C)C(=O)Nc1cccc(C#N)c1)c1c(N)n(CCCC)c(=O)[nH]c1=O (centres undefined) | inconclusive: 79.4 µM [inhibitor, single point] | –
COc1ccc(-c2c(-c3cc(OC)cc(OC)c3)n(C)c3ccc(-c4ccc(N(C)C)nc4)cc23)cc1 | – | inactive: -0.411% [at 0.501 µM]
CCS(=O)(=O)N1CC(=O)N(c2cc(C)cc(C)c2)C(C)(C(=O)NC2CCCCC2)C1 (centres undefined) | – | inactive: 7.35%
COc1ccc(N2CCN(CCCNC(=O)c3nnc(Cc4ccccc4Cl)o3)CC2)cc1 | active: 12.6 µM | –
Oc1c(Cl)cc(Cl)c2cccnc12 | active: 39.8 µM | –
Cc1ccc(NC(=O)CSc2nnc(-c3cc4occc4n3C)n2-c2ccccc2C)c(C)c1 | inconclusive: 15.8 µM [inhibitor, partial curve, poor fit] | –
CC(=O)C1=C(C)NC(SCC(N)=O)=C(C#N)C1c1ccco1 (centres undefined) | inconclusive: 10 µM [inhibitor, partial curve, poor fit] | –
CCN(CC)S(=O)(=O)c1cccc(C(=O)N/N=C/c2ccccn2)c1 | inconclusive: 0.794 µM [inhibitor, full curve, poor fit] | –
CCOc1ccccc1CNc1nc2ccccc2n1C | – | inactive: 20% [at 102 µM]
CN(C(=O)COc1cc(=O)n(C)c2ccccc12)c1ccc(Cl)cc1 | inconclusive: 89.1 µM [inhibitor, single point] | –
Cc1nc2c(C)cccn2c(=O)c1NC(=O)c1ccc(Br)o1 | – | inactive: -0.0098% [at 102 µM]
C=CCn1c(COc2ccccc2F)nnc1SCC(=O)Nc1cc2oc3ccccc3c2cc1OC | – | inactive: 7.15% [at 102 µM]
CC(NC(=O)/C(C#N)=C/c1ccc(Cl)c([N+](=O)[O-])c1)c1ccccc1 (centres undefined) | inconclusive: 2.51 µM [inhibitor, full curve, poor fit] | –

SMILES | Potency | activity, negative = inhibition
CCc1ccc2[nH]c(=O)c(CN(CCO)C(=O)NCc3ccccc3)cc2c1 | inconclusive: 1.78 µM [inhibitor, partial curve, poor fit] | –
CCc1ccc(NC(=O)CN2CCCN(S(=O)(=O)c3ccc(F)cc3)CC2)cc1 | inconclusive: 79.4 µM [inhibitor, single point] | –
CN(C)c1ccc(NS(=O)(=O)c2ccc(-c3csnn3)cc2)cc1 | active: 39.8 µM | –
CCS(=O)(=O)c1nc(S(=O)(=O)c2ccc(C)cc2)c(NCc2ccccn2)s1 | – | inactive: 2.1% [at 102 µM]
CC(C)(C)OC(=O)C(Cc1ccc(OC(C)(C)C)cc1)NC(=O)CNC(=O)OCc1ccccc1 (stereo not drawn) (Cbz-Gly-[ξY](tBu)-OtBu) | inconclusive: 20 µM [inhibitor, single point] | –
CC(C)CCSc1nc(N2CCOCC2)c2c(c1C#N)CC(C)(C)OC2 | – | inactive: 29% [at 102 µM]
O=C(c1ccc(NS(=O)(=O)/C=C/c2ccccc2)cc1)N1CCCCC1 | inconclusive: 50.1 µM [inhibitor, partial curve] | –
Cc1ccc2nc(N(CCN(C)C)C(=O)c3cc(Cl)sc3Cl)sc2c1 | inconclusive: 39.8 µM [inhibitor, single point] | –
COc1ccc(S(=O)(=O)N2CCC(N3CCCCC3)CC2)cc1 | inconclusive: 5.62 µM [inhibitor, single point] | –
CCN1CCN(CC(=O)Nc2sc3c(c2C#N)CCC3)CC1 | active: 70.8 µM | –
Cc1ccc(N(C(=O)Cn2nnc(-c3ccccc3)n2)C(C(=O)NC2CCCCC2)c2ccccn2)cc1C (centres undefined) | – | inactive: 14.3%
Cc1cc(S(=O)(=O)N2CCN(CC(=O)NCCc3cccs3)CC2)ccc1Br | – | inactive: 8.74% [at 2.33 µM]
O=C1c2ccccc2C(=O)N1c1ncccn1 | inconclusive: 1.58 µM [inhibitor, partial curve, poor fit] | –
O=C(CSc1nnc(SCc2ccccc2)s1)N/N=C/C=C/c1ccco1 | active: 12.6 µM | –
CCN(CC)c1ccc(C(=O)NNC(=O)CCc2nc3ccccc3c(=O)[nH]2)cc1 | – | inactive: 34.4% [at 102 µM]
CCn1c(CNC(=O)c2ccccc2F)nnc1SCC(=O)NC1CCCCC1 | – | inactive: 0.338% [at 102 µM]
COC(=O)c1ccc(NS(=O)(=O)c2ccc3c(c2)n(C)c(=O)c(=O)n3C)cc1 | – | inactive: 5.11%
